Here are results for 114 molecules from PubChem BioAssay AID488969 (Vanderbilt High Throughput Screening Facility, 2010).

In all, about 110,000 compounds were measured (“z-score”: median about -0.1, highest 2% from about 2 on). The list shows a part of the results. The source made the active and inactive calls.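 How the source made its calls: active means z-score in the third read window above 3 or below -3; inactive means the rest.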

The target in the assay is Metabotropic glutamate receptor 8 (Rattus norvegicus) (UniProt P70579). Put plainly: mGluR8 Gi/Go-coupled signaling modulation – cell-based, rat, thallium flux, HTS, primary screen (AID 488969). Conditions: HEK293 rat mGluR8, GIRK (G protein-gated inwardly rectifying potassium channel) thallium flux, FluoZin2; at 10 µM; stronger effect = higher value; submaximal glutamate (EC20) added with thallium.
Sequence of UniProt P70579 (P70579 whole entry, looked up): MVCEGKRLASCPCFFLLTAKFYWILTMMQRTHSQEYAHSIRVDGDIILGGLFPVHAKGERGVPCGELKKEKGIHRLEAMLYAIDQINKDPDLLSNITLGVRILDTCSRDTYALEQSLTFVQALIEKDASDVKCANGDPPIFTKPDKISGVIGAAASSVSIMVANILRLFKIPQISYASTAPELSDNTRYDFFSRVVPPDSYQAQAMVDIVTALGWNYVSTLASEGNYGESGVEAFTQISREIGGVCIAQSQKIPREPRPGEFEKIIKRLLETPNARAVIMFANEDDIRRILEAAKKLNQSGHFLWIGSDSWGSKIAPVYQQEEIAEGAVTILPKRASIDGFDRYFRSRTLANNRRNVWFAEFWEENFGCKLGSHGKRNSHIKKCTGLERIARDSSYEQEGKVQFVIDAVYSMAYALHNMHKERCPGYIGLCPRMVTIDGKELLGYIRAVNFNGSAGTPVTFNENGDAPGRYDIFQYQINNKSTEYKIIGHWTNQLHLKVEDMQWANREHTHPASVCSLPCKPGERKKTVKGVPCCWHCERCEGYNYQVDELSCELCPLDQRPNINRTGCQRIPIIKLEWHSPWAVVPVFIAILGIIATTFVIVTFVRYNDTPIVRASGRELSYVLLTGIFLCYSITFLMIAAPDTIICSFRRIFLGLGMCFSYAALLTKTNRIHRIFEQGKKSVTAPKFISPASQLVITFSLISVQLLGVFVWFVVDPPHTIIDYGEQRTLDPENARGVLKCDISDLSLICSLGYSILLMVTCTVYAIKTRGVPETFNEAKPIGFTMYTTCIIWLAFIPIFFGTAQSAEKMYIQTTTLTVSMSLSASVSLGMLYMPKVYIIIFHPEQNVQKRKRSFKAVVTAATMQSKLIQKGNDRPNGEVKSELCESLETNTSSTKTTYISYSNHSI
In the case of `C=CCNC(=S)NNC(=O)COc1ccc(Cl)cc1Cl`, the z-score was active: 6.1.
`COc1ccc(CCNC(=O)c2ccc(CN3CCC(Cc4ccccc4)CC3)cc2)cc1`: the z-score is -0.304.
The result for `Cn1cnc2c1c(=O)n(Cc1ccc(F)cc1Cl)c(=O)n2C` reads -0.412; that for `CCc1ccccc1N(CC(=O)NCCSCc1ccco1)S(C)(=O)=O`, 0.26.
Then `COC(=O)c1ccccc1Sc1c(/C=N/OC(=O)c2ccccc2)c(C(F)(F)F)nn1C`, with 0.737.
The result for `COc1ccc(-c2ccnc(SCC(=O)Nc3ccccn3)n2)cc1` reads -0.886; that for `CCOC(=O)c1c(C)n(C)c2cc(-c3ccc(C)cc3)c(O)cc12`, -0.14; that for `COc1cccc(-n2nnc3c(=O)n(CC(=O)N4CCC(C)CC4)cnc32)c1`, 0.0581.
Turning to `Cc1nc(Nc2ccc3c(c2)OCCO3)c2oc3ccccc3c2n1`, the z-score was -0.339.
`CC/C(=N/N=C(\CC)c1ccccc1)c1ccccc1`: the z-score was -0.0677.
Turning to `O=C(OCC(=O)N1CCCc2ccccc21)c1cncc(Br)c1`, the z-score was -0.0721.
The result for `Cc1ccc(Nc2c3c(nc4ncnn24)CC(C)CC3)cc1` (centres undefined) reads -0.481; that for `C/C(=N\Nc1ccc(F)cc1)c1ccncc1`, -0.156; that for `O=C(Nc1ccc(CN2CCOCC2)cc1)c1cccc(F)c1`, 0.0821.
The result for `CCOC(=O)N1CCN(S(=O)(=O)c2cc(Br)cnc2N)CC1` reads 0.404; that for `COc1ccc(C2=Nn3c(nnc3-c3ccncc3)SC2)cc1OC`, -0.0218.
Regarding `COc1cccc2c1OCC1COc3c(c(=O)n(C)c(=O)n3C)C21` (centres undefined), the z-score was -0.00656.
Then `O=S(=O)(Cc1ccccc1Cl)CC(O)COc1ccccc1Cl` (centres undefined), with -0.273; and `CCN(CC)S(=O)(=O)c1ccc(N2CCOCC2)c(NS(=O)(=O)c2cc(C(C)(C)C)ccc2C)c1`, with -0.103.
Turning to `Cc1ccc(SCC2=NNC(=O)C2)cc1`, the z-score was -0.291.
The result for `O=C(CSc1nnc2scc(-c3ccccc3)n12)N1CCN(Cc2ccccc2)CC1` reads -0.819; that for `COCCNC(=S)Nc1ccc2nsnc2c1`, -0.103; that for `CCOCCCNC(=O)CCCOc1ccccc1`, 0.0157.
Molecule `O=C1C2C3c4ccccc4C(c4ccccc43)C2c2nc3ccccc3n21` (centres undefined) came in with a z-score of -0.0943.
Then `CCS(=O)(=O)N1CCCC(C(=O)NCCN2CCC(Cc3ccccc3)CC2)C1` (centres undefined), with -0.302; and `Cc1cccc(N2CCN(C(=O)C(C)C)CC2)c1C`, with 0.0205.
`CCCCOC(=O)Cn1c(=O)n(CC(=O)OCCCC)c2cc(C)ccc21` came in with a z-score of 0.161.
Regarding `Cc1cc(C)c2nc(N3CCCC(C(=O)NCCN4CCOCC4)C3)sc2c1` (centres undefined), the z-score is -1.3.
As for `CC(=O)N1CCc2cc(C(=O)CN3CCCN(Cc4ccc(F)cc4)C3)ccc21`, the z-score worked out at 0.249.
The result for `S=C(NCc1ccccn1)Nc1ccc(Cl)c(Cl)c1` reads -0.494; that for `COc1nc2ccccc2c(=O)n1OCC(C)C`, 0.0226.
The result for `O=S(=O)(Nc1ccc(-n2cccc2)cc1)c1ccccc1` reads -0.0716; that for `COC(=O)C1=C(O)/C(=C\c2cc(C)n(-c3ccccc3C)c2C)N=C1C`, -0.389.
The result for `COc1ccc(C(=O)Nc2ccc(S(=O)(=O)NCc3ccco3)cc2)cc1OC` reads active: 3.13; that for `Cn1c(=O)[nH]c(=O)c2c1nc(N1CCOCC1)n2CCCSc1ncccn1`, -0.178.
Molecule `CCCCCNCc1ccc(Br)cc1` returned a z-score of -0.224.
The result for `Cc1ccc(S(=O)(=O)N(CC(=O)N2CCC(C(N)=O)CC2)Cc2ccc(F)cc2)cc1` reads 1.01; that for `Cc1sc2nc(NCCO)[nH]c(=O)c2c1C`, 0.606; that for `CC1CCN(C2=NC(=O)/C(=C/c3cn(-c4ccccc4)nc3-c3cccc(S(=O)(=O)N(C)C)c3)S2)CC1`, 0.0819.
`CCOC(=O)c1cccc(Nc2ncnc3ccccc23)c1` returned a z-score of -0.0839.
As for `C=CCn1c(SCC(=O)NCC2CCCO2)nnc1C1CCCCC1` (centres undefined), the z-score worked out at 1.34.
Then `Cc1cc(Cl)c(S(=O)(=O)N2CCCCCC2)cc1OCC(N)=O`, with 1.66; and `CC(=NC(C)C)C1=C(O)C(C)OC1=O` (centres undefined), with -0.0446.
For the molecule `COc1cccc(/C=N/NC(=O)CCCC(=O)Nc2ccc(Br)cc2)c1`, the z-score is -0.166.
Then `COC(=O)c1cc(/C=C/c2ccccc2)on1`, with -1.23.
The result for `COc1ccc(N(C(=O)c2ccco2)S(=O)(=O)c2cccs2)cc1` reads -0.713.
As for `COc1ccc(NS(=O)(=O)c2ccc(O)c(NC(=O)c3ccc(S(=O)(=O)N4CCCCCC4)cc3)c2)cc1`, the z-score worked out at 0.0959.
The result for `CCCCN(CCCC)C(=S)N/N=C/c1c(C)[nH]n(-c2ccccc2)c1=O` reads active: 10.4; that for `Cc1ccc(NC(=O)CN(C)C(=O)CN2C(=O)NC(C)(c3ccccc3)C2=O)cc1` (centres undefined), 0.797.
`O=C(O)c1ccccc1-c1ccccc1C(=O)NCCCO` showed a z-score of -0.333.
Then `O=C(/C=C/c1ccc(Cl)cc1Cl)n1cccn1`, with -0.586.
The result for `O=C(CSc1nccn1-c1ccc(Cl)cc1)NCc1ccc2c(c1)OCO2` reads -0.413; that for `Cc1nn(Cc2ccc(F)cc2)c(C)c1NC(=O)c1cnn2cccnc12`, -0.449; that for `CS(=O)(=O)NCC(c1cccnc1)N1CCN(c2ccc(F)cc2)CC1` (centres undefined), -0.636.
The result for `CC(C)(C)/C(O)=C(/C#N)c1nc2ccccc2[nH]1` reads -0.0828.
As for `CCCOc1cc(C)c(S(=O)(=O)NCCOC)cc1C`, the z-score stood at 1.15.
Turning to `COc1ccccc1CNC(=O)c1c(O)c2cc(OC)c(OC)cc2[nH]c1=O`, the z-score is 0.0684.
Then `CC(C)(C)c1nnc(NC(=O)NS(=O)(=O)c2ccccc2)s1`, with 0.0318; and `NS(=O)(=O)c1ccc(CNC(=O)/C=C/c2c(Cl)cccc2Cl)cc1`, with -0.309.
Then `COc1ccc(-c2csc(NC(=O)CCn3cnc4ccccc4c3=O)n2)cc1OC`, with -0.202; and `O=C(OCC(=O)N1CCOCC1)c1ccccc1Cc1ccccc1`, with -0.121.
The result for `O=C(CCc1ccc(Oc2cc([N+](=O)[O-])cc([N+](=O)[O-])c2)cc1)NC1CCCC1` reads -0.239; that for `COc1cccc(C(=O)N/N=C2\SCC(=O)N2Cc2ccc3c(c2)OCO3)c1`, -0.191; that for `COc1ccc(-n2c(=O)c3ccccc3n(CC(=O)NC3CCCC3)c2=O)cc1`, 0.339.
Molecule `Cc1ccc(NC(=O)CSc2nnc(C)c(=O)n2N)c(C)c1` came in with a z-score of -0.162.
Then `O=C1c2ccccc2C(O)(c2ncc[nH]2)N1CCc1ccccc1` (centres undefined), with -0.168.
`CC(=O)c1cc(F)c(N2CCN(C(=O)COc3ccc(F)cc3)CC2)cc1C`: the z-score is -0.112.
The result for `Cc1cc2c(c(=O)o1)C(Cc1ccccc1)C(C#N)=C(N)O2` (centres undefined) reads -0.112; that for `COc1nc(NCCc2ccc(OC)c(OC)c2)nc(NC(C)(C)CO)n1`, -0.122.
Then `COc1ccc(C2(C(=O)Nc3cc(C)on3)CCOCC2)cc1`, with -0.455; and `Cn1nnnc1SCC(=O)N1CCOCC1`, with 0.18.
Then `Cc1ccc(NC(=O)NC2CCCCC2)cc1Cl`, with 0.508.
`N#C/C(=C\c1ccc(F)cc1)c1n[nH]c(Cn2cncn2)n1` showed a z-score of 0.359.
Then `O=C(Cn1c(NCCCO)nc2ccccc21)c1cccs1`, with 0.589; and `CCOC(=O)n1c(=O)n(Cc2ccccc2Cl)c2ccccc21`, with -0.816; and `COc1ccc(C2(CNC(=O)c3cccc([N+](=O)[O-])c3)CCOCC2)cc1`, with 0.306.
Consider `CCC(OC(=O)c1cccs1)C(=O)NCc1ccco1` (centres undefined), for which the z-score is 0.805.
Then `O=P(OC1CCCCC1)(OC1CCCCC1)C(O)c1ccccc1` (centres undefined), with -0.904; and `COc1cc2c(C(=O)Nc3ccc4c(c3)OCO4)cn(CC(C)C)c(=O)c2cc1OC`, with -1.29.
Then `Cc1ccc(S(=O)(=O)N2CCCOC2CNC(=O)C(=O)NCc2cccs2)cc1` (centres undefined), with -0.187; and `O=C(CSCc1ccc(Cl)cc1)NCc1ccccn1`, with -0.143; and `Cc1ccc(C(=O)COC(=O)c2cccs2)cc1`, with -0.36.
As to `COc1ccccc1OCCOCCOc1ccc(C)cc1Br`, the z-score is -0.295.
The result for `N#CC1(c2ccccc2)CCCN1C(=O)c1ccccc1Cl` (centres undefined) reads 0.0128; that for `Brc1ccc(-c2noc(CCc3ccccc3)n2)cc1`, -0.13; that for `Cc1cccc(NC(=O)Nc2ccc(C)c(C)c2)n1`, -0.316.
Then `CCc1nc2c(cnn2-c2ccc(Cl)cc2)c(=O)n1-c1ccc2c(c1)OCCO2`, with 0.714; and `COc1ccc(OC)c(N(CC(=O)N2CCCCC2)S(=O)(=O)c2ccc(OC)c(OC)c2)c1`, with -0.383.
The molecule `Cc1ccc2cc(C(=O)O)c(C)nc2c1` showed a z-score of -0.0838.
Turning to `O=C(CN1CCCC1)Nc1nnc(-c2cccs2)s1`, the z-score is -0.187.
For the molecule `COc1cc(N2C(=O)CSC23C(=O)Nc2ccccc23)cc(OC)c1OC` (centres undefined), the z-score was 0.652.
The result for `O=C(N/N=C/C=C/c1ccc([N+](=O)[O-])cc1)c1cccs1` reads -0.641.
Then `CC(=O)Nc1ccc(S(=O)(=O)NCc2csc(C)n2)cc1`, with -0.0143; and `CN(C)CCn1c(=S)[nH]c2ccccc2c1=O`, with -0.191.
Then `CCOc1ccc2nc3c(cc2c1)CN(CCOC)C(=NC)S3`, with 0.0857.
`O=C(C1=NN(c2ccccc2)C2C(=O)N(c3ccccc3)C(=O)C12)c1ccccc1` (centres undefined): the z-score is -0.164.
The result for `Cc1cc(/C=C(\C#N)C(=O)O)c(C)n1CC(C)C` reads -0.126; that for `O=C(COc1ccccc1)N1CCN(S(=O)(=O)c2ccc(Cl)cc2)CC1`, -0.0624; that for `CC1=CC2=NC(=O)/C(=C\c3ccc(-c4ccc(Cl)cc4)o3)C(=N)N2O1`, -0.056.
`Cc1nc(NC(=O)/C=C/c2ccco2)sc1C` gave a z-score of 0.205.
The result for `CC12CN(C(=O)c3ccccc3)C3(C#N)CC1CCC23C` (centres undefined) reads 0.729.
The molecule `CCOC(=O)c1c(/N=C/c2cccc([N+](=O)[O-])c2O)sc(C)c1C` yielded a z-score of -0.0716.
`Cc1ccc(N2C(=O)c3cccc4c(N5CCN(C)CC5)ccc(c34)C2=O)c2cccnc12` showed a z-score of -1.74.
In turn, `NC(=S)N=Nc1c(O)n(Cc2ccccc2)c2ccccc12` gave a z-score of 0.17.
On to `O=C(CCN1C(=O)c2ccccc2C1=O)Nc1ccc(F)cc1`, for which the z-score was found to be 0.554.
Then `O=C1C2C(C(=O)N1c1ccc3c(c1)OCO3)C1C=CC2C12CC2` (centres undefined), with 0.198; and `COc1ccc(-n2nnnc2SCC(N)=O)cc1`, with 0.327; and `CCSc1nnc(NC(=O)c2cc(C)oc2C)s1`, with 0.633.
The result for `COc1ccc(N2C(=O)CS/C2=C\[N+](=O)[O-])cc1` reads 0.156.
The result for `NC(=O)c1ccc(F)cc1` reads 0.635.
Consider `Cc1ccc(Cl)cc1N1CCN(S(C)(=O)=O)CC1`, for which the z-score was determined as 0.079.
`CCOc1ccc(NC(=O)Cn2nnc(C(=O)NCCc3ccc(OC)c(OC)c3)c2N)cc1`: the z-score is -0.555.
The result for `CCOc1cc2c3c(c1)C(C)CC(C)(C)N3C(=O)C2=O` (centres undefined) reads -0.169; that for `COc1cc2c(cc1OC)C(c1ccc3c(c1)OCO3)CC(=O)N2` (centres undefined), 1.52.
